# Assay results: patent US20250221953A1 (The University of Chicago, priority 2022, published 2025)
# Structures can show the parent of a compound that is named as a salt.
# Tested on: PD-1^+ Jurkat T cells co-cultured with H596 (PD-L1^+) cells
# Experiment: 1st screen 1b: rescue of PD-L1/PD-1 dependent exhaustion of PD-1+ Jurkat T cells in co-culture (IL-2 ELISA)
# Assay type: cell-based, human
# Details: 1st screen 1b (Table 4): rescue of PD-L1/PD-1 dependent exhaustion of PD-1 expressing Jurkat T cells co-cultured with PD-L1-expressing H596 cells
row,SMILES,Relative changed percentage (%)
1,N[C@@H](Cc1cc(I)c(Oc2ccc(O)c(I)c2)c(I)c1)C(=O)[O-].[Na+],5.58%
2,Cl.NCCc1c[nH]c2ccc(O)cc12,−47.01%
3,Cc1cc2nc3c(=O)[nH]c(=O)nc-3n(C[C@H](O)[C@H](O)[C@H](O)COP(=O)([O-])OP(=O)([O-])OC[C@H]3O[C@@H](n4cnc5c(N)ncnc54)[C@H](O)[C@@H]3O)c2cc1C.[Na+].[Na+],−17.86%
4,Nc1nc2c(ncn2[C@@H]2O[C@@H]3COP(=O)([O-])O[C@H]3[C@H]2O)c(=O)[nH]1.[Na+],161.1621%
5,"O=C(O)CCCCC1CCSS1 (racemic) [DL-6,8-Thioctic Acid]",20.32%
6,O=C(O)CC(O)C(=O)O (racemic) [DL-MALIC ACID],−54.9%
7,CC(O)CC(=O)O (stereo not shown) [3-HYDROXYBUTYRIC ACID],−38.35%
8,C[C@]12CCC(=O)C[C@@H]1CC[C@@H]1[C@@H]2CC[C@]2(C)[C@@H](O)CC[C@@H]12 [5ALPHA-DIHYDROTESTOSTERONE (DHT)/DHT],−28.08%
9,"C[C@]12CCC(=O)C=C1CC[C@@H]1[C@@H]2CC[C@@]2(C)[C@H]1CC[C@]2(O)C(=O)CO [11-DEOXYCORTISOL/Cortexolone, 11-DEOXYCORTISOL]",−56.72%
10,CC(=O)[C@@]1(O)CC[C@H]2[C@@H]3CCC4=CC(=O)CC[C@]4(C)[C@H]3CC[C@@]21C [17A-HYDROXYPROGESTERONE],−28.91%
11,Cc1cc(O)cc2c1O[C@](C)(CCC[C@H](C)CCC[C@H](C)CCCC(C)C)CC2 [(+)-DELTA-TOCOPHEROL],−31.64%
12,Cc1c(O)cc2c(c1C)O[C@](C)(CCC[C@H](C)CCC[C@H](C)CCCC(C)C)CC2 [(+)-GAMMA-TOCOPHEROL],−68.17%
13,CC1=CCCC(C)(C)C1/C=C/C(C)=C/C=C/C(C)=C/C=C/C=C(C)/C=C/C=C(C)/C=C/C1=C(C)CCCC1(C)C (stereo not shown) [A-CAROTENE],−7.399%
14,CC1=C[C@H](O)CC(C)(C)C1/C=C/C(C)=C/C=C/C(C)=C/C=C/C=C(C)/C=C/C=C(C)/C=C/C1=C(C)CCCC1(C)C (stereo partly shown) [A-CRYPTOXANTHIN],0.7068%
15,CC(C)=O [ACETONE],54.13%
16,CC(=O)OCC[N+](C)(C)C.[Cl-] [ACE[…]],46.02%
17,Nc1ncnc2c1ncn2[C@@H]1O[C@H](CO)[C@@H](O)[C@H]1O [ADENOSINE FREE BASE],−41.49%
18,CCO [ALCOHOL],−5.939%
19,C[C@]12CCC(=O)C=C1CC[C@@H]1[C@@H]2CC[C@]2(C)C(=O)CC[C@@H]12 [ANDROSTENEDIONE],−8.443%
20,CC[C@H](C)[C@H](NC(=O)[C@H](Cc1ccc(O)cc1)NC(=O)[C@@H](NC(=O)[C@H](CCCNC(=N)N)NC(=O)[C@@H](N)CC(=O)O)C(C)C)C(=O)N[C@@H](Cc1cnc[nH]1)C(=O)N1CCC[C@H]1C(=O)N[C@@H](Cc1ccccc1)C(=O)O [ANGIOTENSIN II HUMAN],52.67%

row,SMILES,Relative changed percentage (%)
1,Nc1ncnc2c1ncn2[C@@H]1O[C@H](COP(=O)([O-])OP(=O)([O-])OP(=O)(O)O)[C@@H](O)[C@H]1O.[Na+].[Na+] [Adenosine 5′-Triphosphate Disodium],−49.53%
2,CCCCC/C=C\C/C=C\C/C=C\C/C=C\CCCC(=O)O [Arachidonic acid],−35.91%
3,CC1=C(/C=C/C(C)=C/C=C/C(C)=C/C=C/C=C(C)/C=C/C=C(C)/C=C/C2=C(C)C(=O)[C@@H](O)CC2(C)C)C(C)(C)C[C@H](O)C1=O [Astaxanthin],10.19%
4,CC1=C(/C=C/C(C)=C/C=C/C(C)=C/C=C/C=C(C)/C=C/C=C(C)/C=C/C2=C(C)C[C@@H](O)CC2(C)C)C(C)(C)CCC1 [BETA-CRYPTOXANTIIIN],36.95%
5,C[N+](C)(C)CC(=O)O [BETAINE],−69.21%
6,"O=C(O)CCCC[C@@H]1SC[C@@H]2NC(=O)N[C@@H]21 [BIOTIN, POWDER,, BIOTIN]",−24.34%
7,[Cl][Cd][Cl] [CADMIUM CHLORIDE/cadmium],−23.32%
8,"C=C1CC[C@H](O)C/C1=C/C=C1\CCC[C@]2(C)[C@@H]([C@H](C)CCCC(C)C)CC[C@@H]12 [CHOLECALCIFEROL CRYSTALLINE, CHOLECALCIFEROL]",−71.75%
9,CC(C)CCC[C@@H](C)[C@H]1CC[C@H]2[C@@H]3CC=C4C[C@@H](O)CC[C@]4(C)[C@H]3CC[C@]12C [CHOLESTEROL],−24.1%
10,"O=S(=O)([O-])[O-].[Cu+2] [COPPER(II) SULFATE, ANHYDROUS,/copper, COPPER(II) SULFATE, ANHYDROUS]",108.4%
11,C[C@]12CCC(=O)C=C1CC[C@@H]1[C@@H]2C(=O)C[C@@]2(C)[C@H]1CC[C@]2(O)C(=O)CO [CORTISONE],−34.65%
12,"CN1CC(=O)NC1=N [CREATININE, ANHYDROUS,]",125.8%
13,Nc1cc[nH]c(=O)n1 [CYTOSINE],−34.93%
14,O=C(/C=C/c1ccc(O)c(O)c1)OCCc1ccccc1 [Caffeic acid phenethyl ester],2.439%
15,Cn1c(=O)c2c(ncn2C)n(C)c1=O [Caffeine],−6.216%
16,O=C([O-])CC(O)(CC(=O)[O-])C(=O)[O-].O=C([O-])CC(O)(CC(=O)[O-])C(=O)[O-].[Ca+2].[Ca+2].[Ca+2] [Calcium citrate],24.66%
17,O=C([O-])[C@@H](O)[C@@H](O)[C@H](O)[C@@H](O)C(=O)[O-].[Ca+2] [Calcium d-glucarate],41.61%
18,COc1cc(CNC(=O)CCCC/C=C/C(C)C)ccc1O [Capsaicin],−3.441%
19,[Cl][Cr]([Cl])[Cl] [Chromium Chloride],25.3%
20,O=C(O)CC(O)(CC(=O)O)C(=O)O [Citric Acid],82.45%

row,SMILES,Relative changed percentage (%)
1,COC1=C(OC)C(=O)C(C/C=C(\C)CC/C=C(\C)CC/C=C(\C)CC/C=C(\C)CC/C=C(\C)CC/C=C(\C)CC/C=C(\C)CC/C=C(\C)CC/C=C(\C)CCC=C(C)C)=C(C)C1=O [CoQ-10],26.1655%
2,"CCCCC[C@H](O)CC(=O)CCc1ccc(O)c(OC)c1 [Compound 6-gingerol, 6-gingerol]",−49.51%
3,OC[C@H]1OC(O)[C@H](O)[C@@H](O)[C@H]1O (stereo partly drawn) [D(+)-GALACTOSE ANHYDROUS],87.93%
4,O=C(CO)[C@@H](O)[C@H](O)[C@H](O)CO [D(−)FRUCTOSE],28.94%
5,O.OC[C@H]1O[C@@H](O[C@H]2[C@H](O)[C@@H](O)C(O)O[C@@H]2CO)[C@H](O)[C@@H](O)[C@H]1O (stereo partly drawn) [D-LACTOSE MONOHYDRATE],−6.577%
6,N[C@H]1C(O)O[C@H](CO)[C@@H](O)[C@@H]1OS(=O)(=O)O (stereo partly drawn) [D-glucosamine 3-sulfate],1.387%
7,CC/C=C\C/C=C\C/C=C\C/C=C\C/C=C\C/C=C\CCC(=O)O [Docosahexaenoic Acid (DHA)],−27.37%
8,CC/C=C\C/C=C\C/C=C\C/C=C\C/C=C\CCCCCC(=O)O [Docosapentaenoic acid (DPA)],29.35%
9,C=C1CC[C@H](O)C/C1=C/C=C1\CCC[C@]2(C)[C@@H]([C@H](C)/C=C/[C@H](C)C(C)C)CC[C@@H]12 [ERGOCALCIFEROL],−35.92%
10,C[C@]12CC[C@@H]3c4ccc(O)cc4CC[C@H]3[C@@H]1C[C@@H](O)[C@@H]2O [ESTRIOL],−10.31%
11,C[C@]12CC[C@@H]3c4ccc(O)cc4CC[C@H]3[C@@H]1CCC2=O [ESTRONE],−34.83%
12,CCCCCCCC/C=C\CCCCCCCCCCCC(=O)O [Erucic acid],19.78%
13,"NS(=O)(=O)c1cc(C(=O)O)c(NCc2ccco2)cc1Cl [FUROSEMIDE/LASIX, FUROSEMIDE, reference compound]",93.84%
14,O=C([O-])/C=C/C(=O)[O-].[Fe+2] [Ferrous Fumarate],2.955%
15,"OCC(O)CO [GLYCEROL MOLECULAR BIOLOGY REAGENT, GLYCEROL]",23.62%
16,N=C(N)N [GUANIDINE HYDROCHLORIDE],62.93%
17,Nc1nc2nc[nH]c2c(=O)[nH]1 [GUANINE],236%
18,OC[C@H]1O[C@@H](Oc2c[nH]c3ccccc23)[C@H](O)[C@@H](O)[C@@H]1O [INDOXYL beta-D-GLUCOSIDE],34.0751%
19,O[C@H]1[C@H](O)[C@@H](O)[C@H](O)[C@@H](O)[C@H]1O [Inositol],25.4%

# Same assay, conditions: 1st screen 1b (Table 4): rescue of PD-L1/PD-1 dependent exhaustion of PD-1 expressing Jurkat T cells co-cultured with PD-L1-expressing H596 cells; Hydrochloride
row,SMILES,Relative changed percentage (%)
1,Cl.N[C@H]1C(O)O[C@H](CO)[C@@H](O)[C@@H]1O (stereo partly drawn) [D-(+)-Glucosamine Hydrochloride],7.37%
2,Cl.N[C@H]1C(O)O[C@H](CO)[C@@H](O)[C@@H]1O (stereo partly shown) [Glucosamine Hydrochloride],23.41%
